# The other results are listed elsewhere or left out. Read counts after selection give these values, which scatter widely. Each score is taken over the longer molecules that contain the sequence shown.
# Key:
# Assay in all cases: 6-mer SELEX enrichment z-score vs GST control; IMP3 is the RNA-binding protein IGF2BP3; higher = more enriched by binding
# IMP3 KH1-4 = details: construct: KH1-4 (164-579); SELEX round: R4
# Procedure: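 SELEX-seq with GST-tagged IMP3 KH1-4 (Pro164-Lys579) and an N40 RNA pool, round 4. 6-mer z-score of sequence-tag enrichment normalised to the corresponding GST SELEX round; RNA k-mers written as DNA (T for U).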
# IMP3 RRM1-2 = details: construct: RRM1-2 (1-163); SELEX round: R2
# Procedure: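 SELEX-seq with GST-tagged IMP3 RRM1-2 (Met1-Asn163) and an N40 RNA pool, round 2. 6-mer enrichment z-score normalised to GST SELEX. RNA written as DNA (T = U).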
# IMP3 full-length = IMP3 full-length (UniProt O00425); details: construct: FL IMP3 (1-579); SELEX round: R4
# Procedure: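 SELEX-seq with GST-tagged full-length IMP3 and an N40 RNA pool, round 4. Each 6-mer is scored as an enrichment z-score of sequence tags containing it, normalised to the matching GST SELEX round. RNA written as DNA (T = U).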
# IMP3 KH1-2 = details: construct: KH1-2 (164-376); SELEX round: R4
# Procedure: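 SELEX-seq with GST-tagged IMP3 KH1-2 (Pro164-Phe376) and an N40 RNA pool, round 4 (stringent 300/600 mM KCl washes). 6-mer z-score of sequence-tag enrichment normalised to the corresponding GST SELEX round; RNA k-mers written as DNA (T for U).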
# IMP3 KH3-4 = details: construct: KH3-4 (377-579); SELEX round: R4
# Procedure: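 SELEX-seq with GST-tagged IMP3 KH3-4 (Pro377-Lys579) and an N40 RNA pool, round 4. 6-mer z-score of sequence-tag enrichment normalised to the corresponding GST SELEX round; RNA k-mers written as DNA (T for U).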
# Chain of IMP3 KH1-4 (chain, as listed by the source): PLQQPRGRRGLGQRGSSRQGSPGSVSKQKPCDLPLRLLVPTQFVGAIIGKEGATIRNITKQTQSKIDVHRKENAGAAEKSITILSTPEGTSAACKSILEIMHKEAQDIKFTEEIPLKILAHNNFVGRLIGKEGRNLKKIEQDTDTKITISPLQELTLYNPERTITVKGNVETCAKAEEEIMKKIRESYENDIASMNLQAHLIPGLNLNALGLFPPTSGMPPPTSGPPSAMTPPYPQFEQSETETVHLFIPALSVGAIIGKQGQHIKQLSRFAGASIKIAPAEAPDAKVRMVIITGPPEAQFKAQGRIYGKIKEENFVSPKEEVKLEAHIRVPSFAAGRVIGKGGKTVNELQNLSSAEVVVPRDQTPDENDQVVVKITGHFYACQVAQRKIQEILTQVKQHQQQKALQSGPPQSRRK
# Chain of UniProt O00425 (O00425 whole entry): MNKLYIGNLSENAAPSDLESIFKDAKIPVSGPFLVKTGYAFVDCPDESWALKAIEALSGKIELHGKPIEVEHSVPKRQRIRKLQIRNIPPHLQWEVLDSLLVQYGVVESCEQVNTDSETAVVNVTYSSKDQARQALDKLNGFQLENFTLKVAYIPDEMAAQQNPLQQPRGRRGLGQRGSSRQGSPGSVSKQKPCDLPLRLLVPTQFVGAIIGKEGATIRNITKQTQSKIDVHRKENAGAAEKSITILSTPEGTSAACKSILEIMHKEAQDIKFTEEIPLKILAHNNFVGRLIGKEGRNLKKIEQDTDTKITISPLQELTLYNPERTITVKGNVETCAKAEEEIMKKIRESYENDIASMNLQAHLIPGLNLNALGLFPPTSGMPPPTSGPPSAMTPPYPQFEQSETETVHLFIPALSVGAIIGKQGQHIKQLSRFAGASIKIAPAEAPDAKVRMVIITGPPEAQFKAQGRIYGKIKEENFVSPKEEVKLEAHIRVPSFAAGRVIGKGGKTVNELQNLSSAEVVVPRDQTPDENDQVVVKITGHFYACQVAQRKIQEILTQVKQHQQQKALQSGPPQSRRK
# Chain of IMP3 KH1-2 (chain, as listed by the source): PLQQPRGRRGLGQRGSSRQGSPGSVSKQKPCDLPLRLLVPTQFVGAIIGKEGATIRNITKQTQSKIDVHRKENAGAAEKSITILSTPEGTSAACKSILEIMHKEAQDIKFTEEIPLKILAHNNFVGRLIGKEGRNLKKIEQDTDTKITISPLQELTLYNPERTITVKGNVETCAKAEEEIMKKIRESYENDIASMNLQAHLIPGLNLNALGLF
# Chain of IMP3 RRM1-2 (chain, as listed by the source): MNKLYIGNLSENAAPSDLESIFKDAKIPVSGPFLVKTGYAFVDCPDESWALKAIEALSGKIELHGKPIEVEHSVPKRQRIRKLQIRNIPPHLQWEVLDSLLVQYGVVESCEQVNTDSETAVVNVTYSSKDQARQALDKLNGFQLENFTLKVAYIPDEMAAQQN
# Chain of IMP3 KH3-4 (chain, as listed by the source): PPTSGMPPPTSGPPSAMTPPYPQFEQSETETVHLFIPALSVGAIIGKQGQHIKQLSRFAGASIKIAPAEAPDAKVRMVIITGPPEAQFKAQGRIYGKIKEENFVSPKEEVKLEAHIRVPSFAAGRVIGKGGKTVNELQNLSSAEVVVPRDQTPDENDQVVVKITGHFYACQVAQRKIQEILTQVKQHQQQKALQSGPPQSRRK
Sequence,6-mer SELEX enrichment z-score (IMP3 KH1-4),6-mer SELEX enrichment z-score (IMP3 RRM1-2),6-mer SELEX enrichment z-score (IMP3 full-length),6-mer SELEX enrichment z-score (IMP3 KH1-2),6-mer SELEX enrichment z-score (IMP3 KH3-4)
GGCGCT,-0.133,0.471,0.61,0.021,0.111
CTGCCC,-1.09,-0.499,-1.03,-0.871,-1.64
GACGCC,-0.898,-0.726,-0.492,-0.718,-1.24
TAAATG,0.732,-0.963,-0.637,0.428,1.51
GCGTCT,-0.222,0.728,0.538,-0.01,0.102
CTCAAT,-0.03,0.634,0.208,0.023,-0.149
CACCAG,-0.186,1.72,0.692,-0.281,-0.814
AACTCT,-0.338,-0.279,-0.658,-0.182,-0.44
TAGTTA,0.038,0.259,-0.174,-0.116,0.047
GGAGGT,0.449,0.114,0.401,0.586,0.555
TCCCTA,-0.212,-0.227,-0.617,-0.248,-0.545
GACAAC,-0.481,-0.171,-0.07,-0.403,-0.756
ACAGTC,0.973,0.675,1.45,0.69,0.255
GACAAA,-0.321,-1.18,-0.817,-0.384,-0.033
GAGCTA,-1.52,-0.05,-0.744,-1.37,-1.22
AATCAC,0.974,3.13,1.82,1.06,0.603
CCCAGC,-1.76,-0.446,-0.834,-1.55,-2.02
TAAAGG,0.276,-0.654,-0.289,0.133,0.867
GCCTGC,-0.485,-0.023,-0.045,-0.273,-0.583
GGGGTC,0.34,0.342,0.483,0.573,0.428
AGCAGA,-0.244,0.299,0.339,-0.145,-0.153
CACACT,1.76,2.24,1.55,2,0.737
ACAATT,1.63,0.333,0.687,1.61,1.95

Sequence,6-mer SELEX enrichment z-score (IMP3 KH1-4),6-mer SELEX enrichment z-score (IMP3 RRM1-2),6-mer SELEX enrichment z-score (IMP3 full-length),6-mer SELEX enrichment z-score (IMP3 KH1-2),6-mer SELEX enrichment z-score (IMP3 KH3-4)
AAACCA,-1.01,0.004,-1.62,-0.565,-1.13
GCCGGA,-0.043,-0.791,0.272,-0.012,-0.064
ATCCGC,-0.019,-0.076,0.027,0.182,-0.628
CGAGGC,-0.532,-0.176,0.517,-0.415,-0.398
TTTTTG,0.345,0.32,0.017,0.307,0.683
AGGGAG,1.1,-0.276,0.244,1.14,1.08
GGGTAA,-0.086,-0.116,-0.047,0.016,0.287
GGCGTG,-1.26,0.223,-0.291,-1.05,-0.86
ACAGAT,1.39,0.268,1.01,1.52,1.55
TAATAT,1.58,-0.062,0.235,1.5,2.39
CGGTCC,0.069,0,0.414,-0.024,-0.403
TCTGTG,0.042,0.266,-0.019,-0.07,-0.019
CGGCAG,1.05,0.294,2.17,0.746,0.656
CAAAGG,-0.376,-0.52,0.015,-0.384,-0.231
TCCCAT,0.055,0.127,-0.022,0.056,-0.318
TCGTGA,-0.139,-0.13,-0.197,-0.23,-0.064
TTCCCC,0.285,-0.359,-0.615,0.171,-0.548
ACATCG,-0.027,0.587,0.893,-0.285,-0.549
GTCGAT,0.057,0.146,0.148,-0.051,0.143
GAATCG,-0.663,-0.588,-0.537,-0.767,-0.603
ACCTAC,-1.33,-0.551,-1.38,-1.17,-1.6
CAGTGC,0.167,0.393,0.777,0.065,-0.123
